B1: PhoQ; a variant is named by its letters at X, in order, P23837 (parent)
chain: MKKLLRLFFPLSLRVRFLLATAAVVLVLSLAYGMVALIGYSVSFDKTTFRLLRGESNLFYTLAKWENNKLHVELPENIDKQSPTMTLIYDENGQLLWAQRDVPWLMKMIQPDWLKSNGFHEIEADVNDTSLLLSGDHSIQQQLQEVREDDDDAEMTHSVAVNVYPATSRMPKLTIVVVDTIPVELKSSYMVWSWFIYVLSANLLLVIPLLWVAAWWSLRPIEALAKEVRELEEHNRELLNPATTRELTSLVRNLNRLLKSERERYDKYRTTLTDLTHSLKTPLXXLQXXLRSLRSEKMSVSDAEPVMLEQISRISQQIGYYLHRASMRGGTLLSRELHPVAPLLDNLTSALNKVYQRKGVNISLDISPEISFVGEQNDFVEVMGNVLDNACKYCLEFVEISARQTDEHLYIVVEDDGPGIPLSKREVIFDRGQRVDTLRPGQGVGLAVAREITEQYEGKIVAGESMLGGARMEVIFGRQHSAPKDE

Data on 153 variants can be found in a collection of fitness landscapes (doi:10.1126/science.1257360).

Some of the results follow. Where only a bound is given, the exact number is not on record here.

The variants in the experiment derive from B1. As to the kind of experiment: enrichment ratio after two sorts for PhoP signalling (ratio (wild type AVST 3.29)); higher = more functional. The conditions noted are these: with PhoP (E. coli).
As to CYLN, the enrichment ratio was at most 0.25.

Consider GNRH, for which the enrichment ratio is at most 0.25.

EHYF: the enrichment ratio is at most 0.25.

Consider QEQP, for which the enrichment ratio was at most 0.25.

Take DIYL: the enrichment ratio is at most 0.25.

For HSRH, the enrichment ratio is at most 0.25.

Take YYSG: the enrichment ratio is at most 0.25.

Take RHRW: the enrichment ratio is at most 0.25.

Regarding TDGN, the enrichment ratio was at most 0.25.

As for AMKA, the enrichment ratio is at most 0.25.

With VAFK, the enrichment ratio is at most 0.25.

As to GMRS, the enrichment ratio was at most 0.25.

On to QSLY, for which the enrichment ratio is at most 0.25.

In the case of LNAR, the enrichment ratio is at most 0.25.

Take YAAL: the enrichment ratio was at most 0.25.

On to DNPV, for which the enrichment ratio is at most 0.25.

On to LNWL, for which the enrichment ratio is at most 0.25.

On to WCSG, for which the enrichment ratio is at most 0.25.

For RERI, the enrichment ratio is at most 0.25.

On to CITY, for which the enrichment ratio is at most 0.25.

Turning to SFSN, the enrichment ratio is at most 0.25.

Turning to ICTW, the enrichment ratio was at most 0.25.

In the case of IVWQ, the enrichment ratio was at most 0.25.

As to WELC, the enrichment ratio is at most 0.25.

Take FWSD: the enrichment ratio was at most 0.25.

Consider AMLV, for which the enrichment ratio turned out to be 5.5.

As to MKWM, the enrichment ratio is at most 0.25.

For SPKC, the enrichment ratio was at most 0.25.

With PGLG, the enrichment ratio is at most 0.25.

As for NTFF, the enrichment ratio is at most 0.25.

Take QRRW: the enrichment ratio is at most 0.25.

Consider DQCD, for which the enrichment ratio was at most 0.25.

For the variant NHRV, the enrichment ratio was at most 0.25.

As to ETWF, the enrichment ratio was at most 0.25.

Take SKLC: the enrichment ratio is 12.6.

Consider RDYG, for which the enrichment ratio is at most 0.25.

In the case of IKTG, the enrichment ratio came to 1.98.

With GQPL, the enrichment ratio was at most 0.25.

As to QYFI, the enrichment ratio is at most 0.25.

For the variant EKSD, the enrichment ratio was at most 0.25.

Consider ARTW, for which the enrichment ratio is at most 0.25.

As to KSDF, the enrichment ratio is at most 0.25.

In the case of LDLC, the enrichment ratio was at most 0.25.

For the variant ITIF, the enrichment ratio was at most 0.25.

As for PFPQ, the enrichment ratio is at most 0.25.

As for AFSC, the enrichment ratio was at most 0.25.

In the case of NIRG, the enrichment ratio is at most 0.25.

QCRM: the enrichment ratio was at most 0.25.

Take ESEW: the enrichment ratio is at most 0.25.

On to WRCQ, for which the enrichment ratio is at most 0.25.

Regarding MMSM, the enrichment ratio is 7.2.

On to VGIC, for which the enrichment ratio is at most 0.25.

Regarding PGII, the enrichment ratio was at most 0.25.

With FDIG, the enrichment ratio was at most 0.25.

On to ATHP, for which the enrichment ratio was at most 0.25.

As to LVGY, the enrichment ratio was at most 0.25.

Consider QKIF, for which the enrichment ratio is at most 0.25.

As to YLRD, the enrichment ratio was at most 0.25.

As for PAQR, the enrichment ratio is at most 0.25.

Consider DFDI, for which the enrichment ratio is at most 0.25.

Take WKKR: the enrichment ratio is at most 0.25.

With DKYR, the enrichment ratio was at most 0.25.

YLQS: the enrichment ratio was at most 0.25.

On to NWIL, for which the enrichment ratio was at most 0.25.

As for QNFG, the enrichment ratio is at most 0.25.

GMGH: the enrichment ratio is at most 0.25.

On to EMIR, for which the enrichment ratio was at most 0.25.

Regarding QKTM, the enrichment ratio was at most 0.25.

In the case of RAQW, the enrichment ratio is at most 0.25.

In the case of SQDV, the enrichment ratio was at most 0.25.

With HDNW, the enrichment ratio is at most 0.25.

Regarding MKFH, the enrichment ratio is at most 0.25.

Turning to KDPL, the enrichment ratio was at most 0.25.

With MDNG, the enrichment ratio is at most 0.25.

For the variant MPNV, the enrichment ratio is at most 0.25.

DGTA: the enrichment ratio is at most 0.25.

In the case of MGMV, the enrichment ratio amounted to 11.1.

As for DTHD, the enrichment ratio was at most 0.25.

For the variant MKPD, the enrichment ratio is at most 0.25.

PFGD: the enrichment ratio is at most 0.25.

As to RHMW, the enrichment ratio was at most 0.25.

As to GMPV, the enrichment ratio is at most 0.25.

On to DTQR, for which the enrichment ratio was at most 0.25.

On to VTFA, for which the enrichment ratio is at most 0.25.

In the case of HSMW, the enrichment ratio was at most 0.25.

For the variant DIWC, the enrichment ratio was at most 0.25.

WYLM: the enrichment ratio is at most 0.25.

Turning to ANMT, the enrichment ratio came out at 12.2.

Turning to KGRW, the enrichment ratio was at most 0.25.

GMDS: the enrichment ratio is at most 0.25.

With CTFI, the enrichment ratio was 9.39.

Take RNTQ: the enrichment ratio is at most 0.25.

With DAHG, the enrichment ratio is at most 0.25.

For the variant WYKR, the enrichment ratio is at most 0.25.

Take GQWW: the enrichment ratio is at most 0.25.

Turning to KMDP, the enrichment ratio was at most 0.25.

In the case of ARRC, the enrichment ratio is at most 0.25.

On to YWAI, for which the enrichment ratio is at most 0.25.

As to YWSM, the enrichment ratio is at most 0.25.

Take DGYE: the enrichment ratio is at most 0.25.

For RNMT, the enrichment ratio was 5.12.

Regarding LGLW, the enrichment ratio is at most 0.25.

On to DQFA, for which the enrichment ratio is at most 0.25.

Consider IDYP, for which the enrichment ratio is at most 0.25.

Regarding FCKS, the enrichment ratio was at most 0.25.

For RALR, the enrichment ratio is at most 0.25.

PQCI: the enrichment ratio was at most 0.25.

As to PSWQ, the enrichment ratio was at most 0.25.

For TNHQ, the enrichment ratio is at most 0.25.

Take NICF: the enrichment ratio was at most 0.25.

Turning to RKYF, the enrichment ratio is at most 0.25.

Turning to SKDR, the enrichment ratio is at most 0.25.

With SAVA, the enrichment ratio is at most 0.25.

As to GFHI, the enrichment ratio is at most 0.25.

In the case of ATNW, the enrichment ratio was at most 0.25.

In the case of TRNV, the enrichment ratio was at most 0.25.

On to FLKN, for which the enrichment ratio is at most 0.25.

Regarding MFLT, the enrichment ratio was at most 0.25.

Take PVDK: the enrichment ratio is at most 0.25.

With LVVI, the enrichment ratio is at most 0.25.

On to GFFM, for which the enrichment ratio was at most 0.25.

Consider REFH, for which the enrichment ratio was at most 0.25.

For the variant GQNY, the enrichment ratio was at most 0.25.

Regarding IVEP, the enrichment ratio was at most 0.25.

On to KCNN, for which the enrichment ratio is at most 0.25.

Regarding LNVE, the enrichment ratio is at most 0.25.

As to SWVW, the enrichment ratio is at most 0.25.

For the variant RSKE, the enrichment ratio was at most 0.25.

Consider NVHP, for which the enrichment ratio was at most 0.25.

As for EEPI, the enrichment ratio was at most 0.25.

Take VNQQ: the enrichment ratio was at most 0.25.

Take EGFD: the enrichment ratio was at most 0.25.

Turning to NWWS, the enrichment ratio is at most 0.25.

As to HTSF, the enrichment ratio is at most 0.25.

For the variant DLSL, the enrichment ratio was at most 0.25.

With RPNM, the enrichment ratio was at most 0.25.

As for THDQ, the enrichment ratio is at most 0.25.

Take HAGE: the enrichment ratio was at most 0.25.

With KKHK, the enrichment ratio is at most 0.25.

On to SVYG, for which the enrichment ratio came to 0.76.

As to LPVE, the enrichment ratio is at most 0.25.

For the variant SSAI, the enrichment ratio came to 9.88.

Consider NHTE, for which the enrichment ratio was at most 0.25.

In the case of WPRI, the enrichment ratio was at most 0.25.

As for NGCM, the enrichment ratio was at most 0.25.

SNDD: the enrichment ratio is at most 0.25.

As for SYER, the enrichment ratio was at most 0.25.

In the case of NYRH, the enrichment ratio is at most 0.25.

DQTT: the enrichment ratio is at most 0.25.

For the variant SLPN, the enrichment ratio was at most 0.25.

With HYFN, the enrichment ratio was at most 0.25.

With TFVY, the enrichment ratio was at most 0.25.

Turning to MACA, the enrichment ratio is at most 0.25.
